Test results as given in the supplement of paper PMC3694890.
± gives the uncertainty stated by the source. Some of the results follow. A small y stands for phosphotyrosine.

B1: CRKL_127/A1 (peptide)
chain: yVRTLY
B2: CBL_774/A1 (peptide)
chain: yDVPKP
B3: CK22_240/A1 (peptide)
chain: yDQLVR
B4: CBL_700/A1 (peptide)
chain: yMTPSS
B5: CRKL_198/A1 (peptide)
chain: yGIPEP
B6: CRKL_132/A1 (peptide)
chain: yDFPGN
B7: ABL1_257/A1 (peptide)
chain: yEGVWK
B8: ABL1_264/A1 (peptide)
chain: ySLTVA
B9: CK22_256/A1 (peptide)
chain: yGYLKK
B10: CBL_674/A1 (peptide)
chain: ySLAAR
B11: CBL_731/A1 (peptide)
chain: yEAMYN
B12: TEC_206/A1 (peptide)
chain: yYLILE
B13: CO3A1_1378/A1 (peptide)
chain: yMDQAS

Target: GRB2 (endogenous complexes from cell lysate), P62993
Experiment: GRB2 complex binding differential signal (pY peptide minus Ala control peptide) (fluorescence intensity units); higher = stronger GRB2 complex binding
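Note: phosphopeptide probes on the chip at 1–4 µM, lysate proteins bound in 20 mM Tris pH 7.0 buffer with 140 mM NaCl, 1% Triton X-100 and 5% glycerol.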

Binder | GRB2 complex binding differential signal (MCF7) | GRB2 complex binding differential signal (MCF10A) | GRB2 complex binding differential signal (MDA-MB-231) | GRB2 complex binding differential signal (T47D)
B1 | 542 ± 370 | 520 ± 280 | 632 ± 290 | 555 ± 1000
B2 | 5280 ± 620 | 3110 ± 780 | 1360 ± 440 | 512 ± 1300
B3 | 1960 ± 650 | 1450 ± 280 | 472 ± 340 | 347 ± 1100
B4 | 16400 ± 6200 | 13000 ± 2700 | 3170 ± 700 | 5800 ± 2200
B5 | 1770 ± 900 | 1460 ± 330 | 1810 ± 570 | 327 ± 1300
B6 | 918 ± 640 | 663 ± 280 | 797 ± 380 | 546 ± 1200
B7 | 523 ± 250 | 503 ± 210 | 1450 ± 350 | 3610 ± 1200
B8 | 1280 ± 420 | 1300 ± 670 | 966 ± 350 | 1430 ± 1200
B9 | 148 ± 300 | 124 ± 550 | 536 ± 350 | 275 ± 1300
B10 | 2270 ± 640 | 896 ± 200 | 801 ± 260 | 1130 ± 1200
B11 | 1190 ± 310 | 696 ± 500 | 1450 ± 650 | 1380 ± 2200
B12 |  | -81.2 ± 410 | 529 ± 300 | 
B13 | 1130 ± 780 | 786 ± 200 | 1130 ± 530 | 620 ± 1300
